Biological target: T1, CD177 expressed on transfected HEK293 cells (human, UniProt Q8N6Q3 22-408)
T1 construct: whole, on cells; also called CD177-overexpressing cells; CD177-expressing cells
T1 sequence (looked up): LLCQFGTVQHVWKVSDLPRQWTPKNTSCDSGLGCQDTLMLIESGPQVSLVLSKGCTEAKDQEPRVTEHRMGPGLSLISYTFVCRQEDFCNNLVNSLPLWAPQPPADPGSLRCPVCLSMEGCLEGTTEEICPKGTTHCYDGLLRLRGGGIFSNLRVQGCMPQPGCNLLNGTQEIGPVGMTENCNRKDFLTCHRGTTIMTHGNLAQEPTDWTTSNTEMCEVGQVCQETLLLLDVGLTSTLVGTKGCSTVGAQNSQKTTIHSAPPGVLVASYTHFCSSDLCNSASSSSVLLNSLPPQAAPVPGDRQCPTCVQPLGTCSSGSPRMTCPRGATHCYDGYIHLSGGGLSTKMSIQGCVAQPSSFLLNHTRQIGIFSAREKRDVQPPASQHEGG
Experiment: flow cytometry, live HEK293 transfectants, 5 µg/mL probe, AF647 anti-human Fc, duplicate
Description: Binding of hSMAGP ECD-hIgG1 Fc to CD177 was reevaluated in a live cell assay using flow cytometry. HEK293 cells were transfected with expression vectors encoding ZsGreen1 only (Control) or ZsGreen1 and CD177. Live cell transfectants, including Control-only transfected cells, were incubated with 5 μg/mL of hSMAGP ECD-hIgG1 Fc. Cells were washed and the binding was detected using AF647-labeled anti-human Fc secondary antibody by flow cytometry. The assays were performed in duplicate.

- fold change in median fluorescence intensity over control cells: 157 fold
B1: hSMAGP ECD-hIgG1 Fc (Fc fusion)
chain: not shown
notes: Biotinylated (EZ-link NHS-LC-LC-biotin) in the lectin microarray and ELISA assays; also called human SMAGP ECD-hIgG1 Fc; HuSMAGP-hIgG1

Reference: US20260098070A1 (DEM BIOPHARMA, published 2026)
